# In patent publication EP4714971A1 (Shanghai Hansoh Biomedical Co., Ltd., dated 2024):
# T1: human SEZ6 expressed on stably transfected CHO-K1 cells (human, UniProt Q53EL9 20-994)
# T1 construct: also called CHO-SEZ6; hSEZ6
# T1 sequence: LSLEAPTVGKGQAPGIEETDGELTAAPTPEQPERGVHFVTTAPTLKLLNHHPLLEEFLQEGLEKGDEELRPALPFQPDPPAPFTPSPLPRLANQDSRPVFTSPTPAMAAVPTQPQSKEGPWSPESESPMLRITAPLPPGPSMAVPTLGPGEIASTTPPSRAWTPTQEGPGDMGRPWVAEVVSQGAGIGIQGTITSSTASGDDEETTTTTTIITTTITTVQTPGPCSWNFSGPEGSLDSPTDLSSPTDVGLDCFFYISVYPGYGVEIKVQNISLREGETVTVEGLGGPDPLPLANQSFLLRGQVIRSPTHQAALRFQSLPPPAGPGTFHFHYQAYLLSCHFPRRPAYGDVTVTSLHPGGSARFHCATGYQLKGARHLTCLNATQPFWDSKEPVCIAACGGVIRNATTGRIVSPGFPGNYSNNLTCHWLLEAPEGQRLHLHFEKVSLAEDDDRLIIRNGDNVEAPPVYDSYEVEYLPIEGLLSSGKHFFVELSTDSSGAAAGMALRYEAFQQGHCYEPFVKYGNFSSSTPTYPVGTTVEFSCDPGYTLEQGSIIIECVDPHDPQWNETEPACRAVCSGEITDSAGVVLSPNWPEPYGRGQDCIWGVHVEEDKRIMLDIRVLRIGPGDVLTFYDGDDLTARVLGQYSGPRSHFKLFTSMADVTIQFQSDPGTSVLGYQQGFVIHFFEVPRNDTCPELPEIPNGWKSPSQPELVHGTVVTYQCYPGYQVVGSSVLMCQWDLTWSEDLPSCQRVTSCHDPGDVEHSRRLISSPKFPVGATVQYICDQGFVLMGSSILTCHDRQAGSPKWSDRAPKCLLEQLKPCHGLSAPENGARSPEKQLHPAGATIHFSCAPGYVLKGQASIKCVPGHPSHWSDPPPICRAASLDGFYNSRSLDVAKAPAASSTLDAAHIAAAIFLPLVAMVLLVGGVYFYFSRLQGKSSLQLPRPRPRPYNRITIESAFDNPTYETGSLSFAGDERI
# T2: SEZ6L-Fc protein (human, UniProt Q9BYH1 29-958, limits assumed)
# T2 construct: The construct is not described beyond its name; also called SEZ6L protein; Human SEZ6L1; not shown: Fc
# T2 sequence (looked up): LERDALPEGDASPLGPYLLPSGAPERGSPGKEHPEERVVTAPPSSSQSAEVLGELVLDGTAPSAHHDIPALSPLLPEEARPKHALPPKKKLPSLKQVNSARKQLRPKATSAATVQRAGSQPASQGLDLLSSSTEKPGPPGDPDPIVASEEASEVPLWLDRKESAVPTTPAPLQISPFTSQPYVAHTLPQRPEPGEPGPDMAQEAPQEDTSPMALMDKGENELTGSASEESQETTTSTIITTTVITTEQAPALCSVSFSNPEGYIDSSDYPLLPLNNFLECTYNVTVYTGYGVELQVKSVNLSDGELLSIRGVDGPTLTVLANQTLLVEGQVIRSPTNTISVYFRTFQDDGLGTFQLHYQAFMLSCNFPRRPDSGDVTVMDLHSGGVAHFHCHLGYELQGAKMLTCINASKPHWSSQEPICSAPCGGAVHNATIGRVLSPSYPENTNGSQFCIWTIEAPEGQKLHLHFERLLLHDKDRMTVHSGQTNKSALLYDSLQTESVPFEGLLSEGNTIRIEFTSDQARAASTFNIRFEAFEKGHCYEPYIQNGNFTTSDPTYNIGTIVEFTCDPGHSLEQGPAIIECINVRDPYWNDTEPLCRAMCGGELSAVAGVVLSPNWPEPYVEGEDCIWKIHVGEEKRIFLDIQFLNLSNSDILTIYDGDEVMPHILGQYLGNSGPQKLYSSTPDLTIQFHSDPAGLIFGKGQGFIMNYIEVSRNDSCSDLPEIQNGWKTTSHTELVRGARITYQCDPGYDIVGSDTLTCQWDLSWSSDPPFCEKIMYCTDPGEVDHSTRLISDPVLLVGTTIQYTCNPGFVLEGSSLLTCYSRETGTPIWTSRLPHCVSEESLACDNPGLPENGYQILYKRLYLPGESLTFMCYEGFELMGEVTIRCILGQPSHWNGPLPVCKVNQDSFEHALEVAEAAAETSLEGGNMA
# T3: Recombinant human SEZ6-His6 protein (human, UniProt Q53EL9 20-925)
# T3 construct: also called His-tagged SEZ6 antigen
# T3 sequence: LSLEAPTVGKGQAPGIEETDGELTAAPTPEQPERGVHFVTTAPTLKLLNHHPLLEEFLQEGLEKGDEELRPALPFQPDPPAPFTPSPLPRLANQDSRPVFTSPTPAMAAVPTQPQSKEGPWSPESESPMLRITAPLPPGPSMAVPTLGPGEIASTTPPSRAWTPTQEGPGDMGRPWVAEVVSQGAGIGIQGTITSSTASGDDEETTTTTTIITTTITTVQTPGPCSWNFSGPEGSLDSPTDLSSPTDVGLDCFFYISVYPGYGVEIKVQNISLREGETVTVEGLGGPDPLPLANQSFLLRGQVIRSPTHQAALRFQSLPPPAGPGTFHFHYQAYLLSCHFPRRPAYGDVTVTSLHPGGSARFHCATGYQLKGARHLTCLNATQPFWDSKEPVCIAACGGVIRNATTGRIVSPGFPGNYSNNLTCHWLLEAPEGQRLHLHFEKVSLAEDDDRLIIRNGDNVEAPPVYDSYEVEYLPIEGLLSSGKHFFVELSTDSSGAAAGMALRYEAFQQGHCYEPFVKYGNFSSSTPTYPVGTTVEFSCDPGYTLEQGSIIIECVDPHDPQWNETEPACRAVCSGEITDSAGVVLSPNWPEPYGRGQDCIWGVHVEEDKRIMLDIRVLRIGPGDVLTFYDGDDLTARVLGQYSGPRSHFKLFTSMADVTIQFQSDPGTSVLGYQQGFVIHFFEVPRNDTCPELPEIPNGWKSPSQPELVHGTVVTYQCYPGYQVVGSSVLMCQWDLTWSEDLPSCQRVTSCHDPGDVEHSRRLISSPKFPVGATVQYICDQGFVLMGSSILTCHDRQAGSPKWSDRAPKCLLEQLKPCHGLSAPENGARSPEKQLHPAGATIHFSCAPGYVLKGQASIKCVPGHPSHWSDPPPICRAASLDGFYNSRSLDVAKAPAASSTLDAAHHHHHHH
# T4: Recombinant monkey SEZ6-His6 protein (cynomolgus monkey, UniProt Q53EL9 20-925 (human entry))
# T4 construct: also called Cynomolgus monkey SEZ6-His6
# T4 chain: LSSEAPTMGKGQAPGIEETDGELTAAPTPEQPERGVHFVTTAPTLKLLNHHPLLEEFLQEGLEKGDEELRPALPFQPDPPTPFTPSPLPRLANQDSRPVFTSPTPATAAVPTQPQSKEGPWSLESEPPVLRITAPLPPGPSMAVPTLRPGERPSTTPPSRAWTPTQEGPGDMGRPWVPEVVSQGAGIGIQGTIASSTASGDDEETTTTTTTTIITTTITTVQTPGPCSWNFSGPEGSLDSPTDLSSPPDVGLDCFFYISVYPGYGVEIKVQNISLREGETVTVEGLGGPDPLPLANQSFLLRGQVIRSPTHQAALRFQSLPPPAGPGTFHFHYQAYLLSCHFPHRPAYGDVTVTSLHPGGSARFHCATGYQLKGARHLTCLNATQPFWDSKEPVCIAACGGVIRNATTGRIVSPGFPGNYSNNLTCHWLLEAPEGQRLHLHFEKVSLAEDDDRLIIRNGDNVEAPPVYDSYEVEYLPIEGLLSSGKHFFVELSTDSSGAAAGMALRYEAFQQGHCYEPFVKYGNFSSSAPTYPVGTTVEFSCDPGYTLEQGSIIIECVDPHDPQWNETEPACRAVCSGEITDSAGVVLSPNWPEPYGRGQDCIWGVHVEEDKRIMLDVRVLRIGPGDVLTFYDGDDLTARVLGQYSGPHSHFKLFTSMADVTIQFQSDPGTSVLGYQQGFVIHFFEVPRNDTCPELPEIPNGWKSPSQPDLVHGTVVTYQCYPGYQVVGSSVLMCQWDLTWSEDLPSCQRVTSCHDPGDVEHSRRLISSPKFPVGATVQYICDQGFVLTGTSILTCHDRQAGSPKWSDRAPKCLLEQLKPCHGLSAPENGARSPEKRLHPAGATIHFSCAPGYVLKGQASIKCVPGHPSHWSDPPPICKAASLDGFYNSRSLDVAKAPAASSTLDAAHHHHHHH
# Columns and labels:
# [1] = target: T1, human SEZ6 expressed on stably …; assay: flow cytometry on CHO-K1 cells expressing human SEZ6
# SEZ6L-Fc protein = target: T2, SEZ6L-Fc protein; assay: ELISA, coated Fc fusion protein at 1 ug/mL
# SEZ6L2-Fc = target: T5, SEZ6L2-Fc (human, UniProt Q6UXD5 28-844, limits assumed); assay: ELISA, coated Fc fusion protein at 1 ug/mL
# SEZ6L2-Fc, sequence (Q6UXD5 28-844 limits assumed): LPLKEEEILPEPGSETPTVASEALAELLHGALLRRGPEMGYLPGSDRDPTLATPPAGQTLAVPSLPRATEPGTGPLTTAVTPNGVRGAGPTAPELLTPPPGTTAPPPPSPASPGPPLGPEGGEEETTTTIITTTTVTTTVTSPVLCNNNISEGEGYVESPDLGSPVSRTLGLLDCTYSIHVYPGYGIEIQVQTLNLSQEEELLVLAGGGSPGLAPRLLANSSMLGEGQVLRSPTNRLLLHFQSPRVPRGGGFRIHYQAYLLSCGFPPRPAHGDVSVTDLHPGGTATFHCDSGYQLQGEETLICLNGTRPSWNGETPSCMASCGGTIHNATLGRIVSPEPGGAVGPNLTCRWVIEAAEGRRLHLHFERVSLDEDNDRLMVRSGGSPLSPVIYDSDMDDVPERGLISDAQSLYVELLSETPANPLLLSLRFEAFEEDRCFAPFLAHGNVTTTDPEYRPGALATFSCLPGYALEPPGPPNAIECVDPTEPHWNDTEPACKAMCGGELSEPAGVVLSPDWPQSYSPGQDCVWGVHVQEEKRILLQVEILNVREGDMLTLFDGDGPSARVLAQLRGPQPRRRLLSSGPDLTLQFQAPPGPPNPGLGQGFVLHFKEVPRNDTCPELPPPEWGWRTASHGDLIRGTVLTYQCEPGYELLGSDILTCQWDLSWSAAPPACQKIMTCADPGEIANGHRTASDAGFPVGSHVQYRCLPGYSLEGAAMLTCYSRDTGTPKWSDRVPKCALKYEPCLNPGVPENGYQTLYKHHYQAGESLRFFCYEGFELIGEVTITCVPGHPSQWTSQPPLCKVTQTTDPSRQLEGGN
# T5 construct: The construct is not described beyond its name; also called SEZ6L2 protein; Human SEZ6L2; not shown: Fc
# [2] = target: T3, Recombinant human SEZ6-His6 protein; assay: SPR (BIAcore 8K), antibody captured on protein A chip, SEZ6-His6 as analyte, 1:1 Langmuir model
# [3] = target: T4, Recombinant monkey SEZ6-His6 protein; assay: as above
Binder,EC50 [1] [nM],MFImax [1],binding result (SEZ6L-Fc protein),binding result (SEZ6L2-Fc),Kd [2] [nM],koff [2] [s⁻¹],kon [2] [M⁻¹ s⁻¹],Kd [3] [nM],koff [3] [s⁻¹],kon [3] [M⁻¹ s⁻¹]
"PR0069 (Fc fusion, also called humanized antibody of cAb025; humanized nanobody) EVQLVESGGGLVQPGGSLRLSCAASGFTFSKDCMAWFRQAPGKGREGVAIISGVGRTRYADSVKGRFTISRDNAKNSLYLQMNSLRAEDTAVYYCAAQRASSSCGSLSRAWYDYWGRGTLVTVSS[skipping human IgG1 Fc with C220S (EU numbers)]",0.05,4580,–,–,–,–,–,–,–,–
"PR0071 (Fc fusion, also called humanized antibody of cAb314; humanized nanobody) HVQLVESGGGLVQPGGSLRLSCAVSGFTSSRGWMAWFRQAPGKEREGVAVIGRRSGDIYYADSLKGRFTISHDNAKNSLYLQMNSLRAEDTATYYCAVGDQAGHVLTSSPYRYWGQGTMVTVSS[skipping human IgG1 Fc with C220S (EU numbers)]",0.07,5340,no binding (tested: 10 nM),no binding (tested: 10 nM),2,0.000513,257000,4.03,0.000665,165000
